From the supplement of paper PMC12230231
± gives the standard deviation of the averaged measurements. Restriction of a single-cycle SIVsab GFP reporter by TRIM5α v1-loop variants in CRFK cells. Human variants: read share among cells still uninfected after two challenges over input, higher = gained restriction. Rhesus variants: share among infected cells over input, higher = lost restriction. Reporter dose not given per row. No active / inactive call per row; the paper calls a change when both replicates lie above its controls (mean + 2 SD of stop or wild-type variants, or the top frameshift score). Residues outside the varied loop are taken from Swiss-Prot. The paper reads the human single-substitution scores as noise; they and the rhesus combinations repeat poorly (rank correlation 0.3 to 0.4), indel scores repeat only for the top variants, rhesus substitutions well (0.9).

What follows are sequences tested on SIVsab (simian immunodeficiency virus of sabaeus monkeys), single-cycle GFP reporter, in CRFK cells (assay: enrichment among uninfected cells over input (fold); higher = stronger restriction). Settings: library: human / rhesus combinations.
Method: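 Pools of CRFK cells expressing variants of the TRIM5α v1 loop were challenged with the single-cycle reporter, sorted by GFP and sequenced; mean of two replicates.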

Sequence | enrichment
MASGILVNVKEEVTCPICLELLTQPLSLDCGHSFCQACLTANHKKSMLDKGESSCPVCRISYQPENIRPNRHVANIVEKLREVKLSPEGQKVDHCARHGEKLLLFCQEDGKVICWLCERSQEHRGHHTFLTEEVAREYQVKLQAALEMLRQKQQEAEELEADIREEKASWKTQIQYDKTNVLADFEQLRDILDWEESNELQNLEKEEEDILKSLTNSETEMVQQTQSLRELISDLEHRLQGSVMELLQGVDGVIKRTENVTLKKPETFPKNQRRVFRAPDLKGMLEVFRELTDVRRYWVDVTVAPNNISCAVISEDKRQVSSPKPQIIYGAPGTLFTFQSLTNFNYCTGILGSQSITSGKHYWEVDVSKKTAWILGVCAGFQPDAMCNIEKNENYQPKYGYWVIGLEEGVKCSAFQDSSFHTPSVPFIVPLSVIICPDRVGVFLDYEACTVSFFNITNHGFLIYKFSHCSFSQPVFPYLNPRKCGVPMTLCSPSS [human TRIM5α, 330-340 = GAPGTLFTFQSLT] | 0.117 ± 0.083
MASGILVNVKEEVTCPICLELLTQPLSLDCGHSFCQACLTANHKKSMLDKGESSCPVCRISYQPENIRPNRHVANIVEKLREVKLSPEGQKVDHCARHGEKLLLFCQEDGKVICWLCERSQEHRGHHTFLTEEVAREYQVKLQAALEMLRQKQQEAEELEADIREEKASWKTQIQYDKTNVLADFEQLRDILDWEESNELQNLEKEEEDILKSLTNSETEMVQQTQSLRELISDLEHRLQGSVMELLQGVDGVIKRTENVTLKKPETFPKNQRRVFRAPDLKGMLEVFRELTDVRRYWVDVTVAPNNISCAVISEDKRQVSSPKPQIIYQAPGTRFTFPSFVNFNYCTGILGSQSITSGKHYWEVDVSKKTAWILGVCAGFQPDAMCNIEKNENYQPKYGYWVIGLEEGVKCSAFQDSSFHTPSVPFIVPLSVIICPDRVGVFLDYEACTVSFFNITNHGFLIYKFSHCSFSQPVFPYLNPRKCGVPMTLCSPSS [human TRIM5α, 330-340 = QAPGTRFTFPSFV] | 0.186 ± 0.0088
MASGILVNVKEEVTCPICLELLTQPLSLDCGHSFCQACLTANHKKSMLDKGESSCPVCRISYQPENIRPNRHVANIVEKLREVKLSPEGQKVDHCARHGEKLLLFCQEDGKVICWLCERSQEHRGHHTFLTEEVAREYQVKLQAALEMLRQKQQEAEELEADIREEKASWKTQIQYDKTNVLADFEQLRDILDWEESNELQNLEKEEEDILKSLTNSETEMVQQTQSLRELISDLEHRLQGSVMELLQGVDGVIKRTENVTLKKPETFPKNQRRVFRAPDLKGMLEVFRELTDVRRYWVDVTVAPNNISCAVISEDKRQVSSPKPQIIYGAPGTLYQSLVNFNYCTGILGSQSITSGKHYWEVDVSKKTAWILGVCAGFQPDAMCNIEKNENYQPKYGYWVIGLEEGVKCSAFQDSSFHTPSVPFIVPLSVIICPDRVGVFLDYEACTVSFFNITNHGFLIYKFSHCSFSQPVFPYLNPRKCGVPMTLCSPSS [human TRIM5α, 330-340 = GAPGTLYQSLV] | 0.0984 ± 0.12
MASGILVNVKEEVTCPICLELLTQPLSLDCGHSFCQACLTANHKKSMLDKGESSCPVCRISYQPENIRPNRHVANIVEKLREVKLSPEGQKVDHCARHGEKLLLFCQEDGKVICWLCERSQEHRGHHTFLTEEVAREYQVKLQAALEMLRQKQQEAEELEADIREEKASWKTQIQYDKTNVLADFEQLRDILDWEESNELQNLEKEEEDILKSLTNSETEMVQQTQSLRELISDLEHRLQGSVMELLQGVDGVIKRTENVTLKKPETFPKNQRRVFRAPDLKGMLEVFRELTDVRRYWVDVTVAPNNISCAVISEDKRQVSSPKPQIIYGARGTLYTFQSLVNFNYCTGILGSQSITSGKHYWEVDVSKKTAWILGVCAGFQPDAMCNIEKNENYQPKYGYWVIGLEEGVKCSAFQDSSFHTPSVPFIVPLSVIICPDRVGVFLDYEACTVSFFNITNHGFLIYKFSHCSFSQPVFPYLNPRKCGVPMTLCSPSS [human TRIM5α, 330-340 = GARGTLYTFQSLV] | 0.145 ± 0.033
MASGILVNVKEEVTCPICLELLTQPLSLDCGHSFCQACLTANHKKSMLDKGESSCPVCRISYQPENIRPNRHVANIVEKLREVKLSPEGQKVDHCARHGEKLLLFCQEDGKVICWLCERSQEHRGHHTFLTEEVAREYQVKLQAALEMLRQKQQEAEELEADIREEKASWKTQIQYDKTNVLADFEQLRDILDWEESNELQNLEKEEEDILKSLTNSETEMVQQTQSLRELISDLEHRLQGSVMELLQGVDGVIKRTENVTLKKPETFPKNQRRVFRAPDLKGMLEVFRELTDVRRYWVDVTVAPNNISCAVISEDKRQVSSPKPQIIYQAPGTLFTFPTLTNFNYCTGILGSQSITSGKHYWEVDVSKKTAWILGVCAGFQPDAMCNIEKNENYQPKYGYWVIGLEEGVKCSAFQDSSFHTPSVPFIVPLSVIICPDRVGVFLDYEACTVSFFNITNHGFLIYKFSHCSFSQPVFPYLNPRKCGVPMTLCSPSS [human TRIM5α, 330-340 = QAPGTLFTFPTLT] | 25.1 ± 11

Same assay, conditions: library: insertions and deletions

Sequence | enrichment
MASGILVNVKEEVTCPICLELLTQPLSLDCGHSFCQACLTANHKKSMLDKGESSCPVCRISYQPENIRPNRHVANIVEKLREVKLSPEGQKVDHCARHGEKLLLFCQEDGKVICWLCERSQEHRGHHTFLTEEVAREYQVKLQAALEMLRQKQQEAEELEADIREEKASWKTQIQYDKTNVLADFEQLRDILDWEESNELQNLEKEEEDILKSLTNSETEMVQQTQSLRELISDLEHRLQGSVMELLQGVDGVIKRTENVTLKKPETFPKNQRRVFRAPDLKGMLEVFRELTDVRRYWVDVTVAPNNISCAVISEDKRQVSSPKPQIIYGARGTRYQTFVNFNYCTGILGNYCTGILGSQSITSGKHYWEVDVSKKTAWILGVCAGFQPDAMCNIEKNENYQPKYGYWVIGLEEGVKCSAFQDSSFHTPSVPFIVPLSVIICPDRVGVFLDYEACTVSFFNITNHGFLIYKFSHCSFSQPVFPYLNPRKCGVPMTLCSPSS [human TRIM5α, 8-codon duplication at 343] | 0.443 ± 0.41
MASGILVNVKEEVTCPICLELLTQPLSLDCGHSFCQACLTANHKKSMLDKGESSCPVCRISYQPENIRPNRHVANIVEKLREVKLSPEGQKVDHCARHGEKLLLFCQEDGKVICWLCERSQEHRGHHTFLTEEVAREYQVKLQAALEMLRQKQQEAEELEADIREEKASWKTQIQYDKTNVLADFEQLRDILDWEESNELQNLEKEEEDILKSLTNSETEMVQQTQSLRELISDLEHRLQGSVMELLQGVDGVIKRTENVTLKKPETFPKNQRRVFRAPDLKGMLEVFRELTDVRRYWVDVTVAPNNISCAVISEDKRQVSSPKPQIYQTFVNFNYCTGILGSQSITSGKHYWEVDVSKKTAWILGVCAGFQPDAMCNIEKNENYQPKYGYWVIGLEEGVKCSAFQDSSFHTPSVPFIVPLSVIICPDRVGVFLDYEACTVSFFNITNHGFLIYKFSHCSFSQPVFPYLNPRKCGVPMTLCSPSS [human TRIM5α, 8-codon deletion at 328] | 0.161 ± 0.1
MASGILVNVKEEVTCPICLELLTQPLSLDCGHSFCQACLTANHKKSMLDKGESSCPVCRISYQPENIRPNRHVANIVEKLREVKLSPEGQKVDHCARHGEKLLLFCQEDGKVICWLCERSQEHRGHHTFLTEEVAREYQVKLQAALEMLRQKQQEAEELEADIREEKASWKTQIQYDKTNVLADFEQLRDILDWEESNELQNLEKEEEDILKSLTNSETEMVQQTQSLRELISDLEHRLQGSVMELLQGVDGVIKRTENVTLKKPETFPKNQRRVFRAPDLKGMLEVFRELTDVRRYWVDVTVAPNNISCAVISEDKRQVSSPKPQIIYGARGTRYQTFVNNFNYCTGILGSQSITSGKHYWEVDVSKKTAWILGVCAGFQPDAMCNIEKNENYQPKYGYWVIGLEEGVKCSAFQDSSFHTPSVPFIVPLSVIICPDRVGVFLDYEACTVSFFNITNHGFLIYKFSHCSFSQPVFPYLNPRKCGVPMTLCSPSS [human TRIM5α, 1-codon duplication at 341] | 1.02 ± 0.9
MASGILVNVKEEVTCPICLELLTQPLSLDCGHSFCQACLTANHKKSMLDKGESSCPVCRISYQPENIRPNRHVANIVEKLREVKLSPEGQKVDHCARHGEKLLLFCQEDGKVICWLCERSQEHRGHHTFLTEEVAREYQVKLQAALEMLRQKQQEAEELEADIREEKASWKTQIQYDKTNVLADFEQLRDILDWEESNELQNLEKEEEDILKSLTNSETEMVQQTQSLRELISDLEHRLQGSVMELLQGVDGVIKRTENVTLKKPETFPKNQRRVFRAPDLKGMLEVFRELTDVRRYWVDVTVAPNNISCAVISEDKRQVSSPKPQIIYGARGTRYFNYCTGILGSQSITSGKHYWEVDVSKKTAWILGVCAGFQPDAMCNIEKNENYQPKYGYWVIGLEEGVKCSAFQDSSFHTPSVPFIVPLSVIICPDRVGVFLDYEACTVSFFNITNHGFLIYKFSHCSFSQPVFPYLNPRKCGVPMTLCSPSS [human TRIM5α, 5-codon deletion at 337] | 0.899 ± 0.59
MASGILVNVKEEVTCPICLELLTQPLSLDCGHSFCQACLTANHKKSMLDKGESSCPVCRISYQPENIRPNRHVANIVEKLREVKLSPEGQKVDHCARHGEKLLLFCQEDGKVICWLCERSQEHRGHHTFLTEEVAREYQVKLQAALEMLRQKQQEAEELEADIREEKASWKTQIQYDKTNVLADFEQLRDILDWEESNELQNLEKEEEDILKSLTNSETEMVQQTQSLRELISDLEHRLQGSVMELLQGVDGVIKRTENVTLKKPETFPKNQRRVFRAPDLKGMLEVFRELTDVRRYWVDVTVAPNNISCAVISEDKRQVSSPKPQIIQTFVNFNYCTGILGSQSITSGKHYWEVDVSKKTAWILGVCAGFQPDAMCNIEKNENYQPKYGYWVIGLEEGVKCSAFQDSSFHTPSVPFIVPLSVIICPDRVGVFLDYEACTVSFFNITNHGFLIYKFSHCSFSQPVFPYLNPRKCGVPMTLCSPSS [human TRIM5α, 8-codon deletion at 329] | 1.14 ± 1.6
MASGILVNVKEEVTCPICLELLTQPLSLDCGHSFCQACLTANHKKSMLDKGESSCPVCRISYQPENIRPNRHVANIVEKLREVKLSPEGQKVDHCARHGEKLLLFCQEDGKVICWLCERSQEHRGHHTFLTEEVAREYQVKLQAALEMLRQKQQEAEELEADIREEKASWKTQIQYDKTNVLADFEQLRDILDWEESNELQNLEKEEEDILKSLTNSETEMVQQTQSLRELISDLEHRLQGSVMELLQGVDGVIKRTENVTLKKPETFPKNQRRVFRAPDLKGMLEVFRELTDVRRYWVDVTVAPNNISCAVISEDKRQVSSPKPQIIYGARGTRYQTFVNFNTGILGSQSITSGKHYWEVDVSKKTAWILGVCAGFQPDAMCNIEKNENYQPKYGYWVIGLEEGVKCSAFQDSSFHTPSVPFIVPLSVIICPDRVGVFLDYEACTVSFFNITNHGFLIYKFSHCSFSQPVFPYLNPRKCGVPMTLCSPSS [human TRIM5α, 2-codon deletion at 344] | 0.462 ± 0.3
MASGILVNVKEEVTCPICLELLTQPLSLDCGHSFCQACLTANHKKSMLDKGESSCPVCRISYQPENIRPNRHVANIVEKLREVKLSPEGQKVDHCARHGEKLLLFCQEDGKVICWLCERSQEHRGHHTFLTEEVAREYQVKLQAALEMLRQKQQEAEELEADIREEKASWKTQIQYDKTNVLADFEQLRDILDWEESNELQNLEKEEEDILKSLTNSETEMVQQTQSLRELISDLEHRLQGSVMELLQGVDGVIKRTENVTLKKPETFPKNQRRVFRAPDLKGMLEVFRELTDVRRYWVDVTVAPNNISCAVISEDKRQVSSPKPQIIYGAQTFVNFNYCTGILGSQSITSGKHYWEVDVSKKTAWILGVCAGFQPDAMCNIEKNENYQPKYGYWVIGLEEGVKCSAFQDSSFHTPSVPFIVPLSVIICPDRVGVFLDYEACTVSFFNITNHGFLIYKFSHCSFSQPVFPYLNPRKCGVPMTLCSPSS [human TRIM5α, 5-codon deletion at 332] | 0.926 ± 0.56
